Assay results taken from the supplement of paper PMC4166925.
± gives the standard deviation of the averaged measurements. The full ranking holds about 33,000 sequences; the median of “E-score (dimensionless, -0.5 to 0.5)” is about -0.046, and the highest 2% start at about 0.36. This is one part of the list.

Tested on: T1, SpTbr T-box DNA-binding domain (GST fusion)
T1 sequence: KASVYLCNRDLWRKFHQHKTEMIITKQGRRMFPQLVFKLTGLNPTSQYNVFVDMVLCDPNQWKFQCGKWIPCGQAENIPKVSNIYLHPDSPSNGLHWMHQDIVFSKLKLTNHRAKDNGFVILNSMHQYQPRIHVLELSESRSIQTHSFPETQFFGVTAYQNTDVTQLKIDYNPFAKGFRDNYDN
Experiment: PBM E-score of 8-mer (E-score (dimensionless, -0.5 to 0.5)); Tbr is Tbrain of the sea star Patiria miniata (Pm) or the sea urchin Strongylocentrotus purpuratus (Sp); higher = stronger binding preference; most listed sequences are background and not binding sites
Details: the construct has about 5 more residues each side
Outline: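 Using the Universal PBM Analysis Suite, every ungapped 8-mer received an enrichment E-score averaged over duplicate arrays. Probe intensities came from double-stranded Universal Agilent oligonucleotide arrays incubated with 200 nM GST-fused Tbr T-box DNA-binding domain in PBS (pH 7.5). That protein was expressed in BL21 E. coli at 20 °C and purified by glutathione affinity chromatography.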

Sequence | PBM E-score of 8-mer
ACTAGGCT | -0.0965 ± 0.017
CACGCACC | 0.296 ± 0.034
AGGCTAGA | -0.117 ± 0.04
CCTTCTAG | -0.0963 ± 0.12
CTGTCTGC | 0.0103 ± 0.078
CAGCCCAC | -0.0939 ± 0.036
ACTCTCGA | 0.03256 ± 0.00013
AGCTAGGG | -0.164 ± 0.0089
ACAGTCCG | 0.00019 ± 0.0047
CGTATTAA | -0.196 ± 0.068
ACCCTATG | 0.0504 ± 0.014
GCGGGGCC | -0.152 ± 0.0011
ACTAAGTC | -0.0898 ± 0.092
CCCGGCCC | -0.121 ± 0.031
TATAAAGA | -0.204 ± 0.061
ACTATCGC | 0.186 ± 0.034
CTTCTTAC | 0.0673 ± 0.0016
AAAGCTGT | 0.152 ± 0.044
GCCAATAA | -0.0902 ± 0.069
AATGAACG | -0.145 ± 0.03
AATACGAG | -0.164 ± 0.025
AACCTACC | -0.182 ± 0.056
AACCATCC | -0.199 ± 0.02
AACAAAAT | -0.0482 ± 0.022
CAGGCTCC | -0.205 ± 0.057

Sequence | PBM E-score of 8-mer
AGGAGGAC | -0.352 ± 0.013
CCGCTCTA | 0.0199 ± 0.029
CAATGGGG | -0.078 ± 0.0016
CTGGGGGA | -0.265 ± 0.018
CATAGTTC | -0.0464 ± 0.037
CGAACACC | 0.321 ± 0.011
GCATGGCC | -0.201 ± 0.029
GCCTTCCC | -0.225 ± 0.017
TCGTACGA | 0.146 ± 0.12
ATATAATC | -0.0774 ± 0.028
AACCACGG | 0.0188 ± 0.11
ATTGGGCC | -0.2 ± 0.0042
CCCAGCGG | -0.147 ± 0.024
CGGCATTA | -0.0937 ± 0.058
CCTCCTGC | 0.0807 ± 0.11
CGCATTAA | -0.108 ± 0.02
AACCTTGG | -0.0793 ± 0.032
CTGGACAA | 0.0472 ± 0.036
CAACCCAG | -0.2068 ± 0.00038
ACCACCGA | -0.0877 ± 0.15
CGACAAAA | 0.158 ± 0.063
AGTGCGAT | 0.4291 ± 0.0025
TCTGCCCA | 0.117 ± 0.065
GGTTTTGA | -0.105 ± 0.0077
GGTTCAGA | 0.00469 ± 0.016

Sequence | PBM E-score of 8-mer
AGAGGACC | -0.186 ± 0.037
CTTTTGGA | -0.0247 ± 0.035
CCGATACC | -0.0553 ± 0.0017
TCCAGAGA | -0.127 ± 0.0013
TCAATAAA | -0.0792 ± 0.099
CCCTCACA | 0.285 ± 0.014
ACCATCTC | -0.0155 ± 0.12
CCATATGA | -0.159 ± 0.012
ATAGAGGC | -0.0893 ± 0.012
ATTCAGGA | -0.175 ± 0.018
CTTCACGA | 0.167 ± 0.043
AGTATCGC | 0.185 ± 0.0083
AAAGAACT | -0.219 ± 0.0037
GCATGGTA | -0.134 ± 0.18
CTTTTCGA | -0.087 ± 0.018
GTATCGAA | 0.0395 ± 0.046
CGAACAAA | 0.0155 ± 0.026
TATTCGCA | 0.369 ± 0.0054
GACCTCAA | -0.081 ± 0.086
CAGCGAAG | 0.195 ± 0.014
CCCACCGC | 0.1329 ± 0.0009
ATCTCCTG | -0.159 ± 0.017
ATTGTTCG | 0.033 ± 0.038
GCACGCCA | 0.0542 ± 0.013
CAACCGAG | 0.0866 ± 0.034

Sequence | PBM E-score of 8-mer
GCTCGAAA | -0.0389 ± 0.092
GCGGCGCC | 0.074 ± 0.059
TCTCTAAA | -0.0734 ± 0.017
ATGAGGTG | 0.354 ± 0.041
TGGACACA | 0.0442 ± 0.042
GCAGGGTA | -0.0833 ± 0.0094
AATCCCTG | -0.1 ± 0.0021
ACTACACT | 0.119 ± 0.038
ACGATAAC | 0.12 ± 0.0046
ATCGCTCG | -0.0361 ± 0.046
TTTATAAA | -0.478 ± 0.021
ACTGGAAC | -0.184 ± 0.0041
AGTCGATG | -0.0189 ± 0.13
AAGCCAGT | -0.166 ± 0.066
CGATGATC | -0.02 ± 0.078
ATGTCACG | 0.204 ± 0.017
ACTCGCGG | 0.318 ± 0.019
AGGGAGGC | -0.137 ± 0.044
AAGACGAG | -0.288 ± 0.056
GAGGCAAA | -0.159 ± 0.064
AGCGTTGA | 0.15 ± 0.039
GACGGTGC | 0.143 ± 0.026
GTGGCCAC | 0.225 ± 0.026
CGGTTAAA | -0.129 ± 0.16
ACTGCATC | -0.11 ± 0.033

Sequence | PBM E-score of 8-mer
GAGGTTGA | 0.0625 ± 0.014
ATTATAAA | -0.12 ± 0.0083
CCTAGCGA | 0.151 ± 0.028
CAGACCAC | -0.113 ± 0.054
TACCGAGA | -0.0479 ± 0.058
AAGCCCCG | -0.156 ± 0.052
GACTCAGA | -0.207 ± 0.019
AATTTGAC | -0.01 ± 0.13
TTGAGCAA | -0.031 ± 0.046
GCAGAGAC | -0.2685 ± 0.0009
GAGTACGC | 0.121 ± 0.07
GCGATTCC | 0.0651 ± 0.047
ACATACCT | 0.156 ± 0.025
GTACTGAC | -0.0964 ± 0.014
CTTACAAG | -0.0445 ± 0.0079
AAATTTGA | -0.202 ± 0.12
CCCCGTTA | 0.026 ± 0.054
AACGCTCT | -0.063 ± 0.0016
AGGAGGTC | -0.269 ± 0.036
CAGCCCAG | -0.2 ± 0.047
CGATCTTC | -0.0484 ± 0.047
AACTACGG | -0.161 ± 0.072
CAGAGTCA | -0.278 ± 0.016
TATTCCCA | -0.169 ± 0.031
AGATGGTC | -0.282 ± 0.021

Sequence | PBM E-score of 8-mer
CGGATCCG | -0.0546 ± 0.076
GGCCCTAA | -0.259 ± 0.049
TATAGGGA | -0.252 ± 0.042
CGGGCAGC | -0.102 ± 0.074
CACCCGCG | 0.321 ± 0.018
AGCCGTTA | 0.235 ± 0.025
GCGGGTCA | -0.0128 ± 0.034
CTAGTCAG | -0.0473 ± 0.038
GCCGCGGA | -0.0408 ± 0.032
GAGACTAA | -0.00983 ± 0.016
CCTAAGGA | -0.1534 ± 0.0015
AGGCGACT | -0.235 ± 0.036
CCCTATGC | -0.116 ± 0.008
AGAAAGCG | 0.0529 ± 0.011
ACTTCGGA | -0.0385 ± 0.046
ACTCCCCA | 0.0341 ± 0.092
CCGCCCCA | -0.113 ± 0.05
AGTGTCTA | 0.17 ± 0.024
CGTAATCA | 0.155 ± 0.017
CTTACTCC | -0.125 ± 0.049
ATGGGTAA | -0.00095 ± 0.067
GTGGCAAC | 0.351 ± 0.013
CAACACCG | 0.312 ± 0.0065
CTATAGTC | 0.0845 ± 0.049
ACTTACAA | 0.0533 ± 0.067

Sequence | PBM E-score of 8-mer
AAGAGTAA | -0.113 ± 0.11
ATTCCTCG | -0.0472 ± 0.07
AACCGTAT | -0.12 ± 0.07
CAAACGGC | 0.0265 ± 0.03
ATTGAAGG | -0.0895 ± 0.13
CCTGTGAC | 0.263 ± 0.011
AAGCTGAC | 0.00715 ± 0.026
CCGGCATC | -0.242 ± 0.041
GAGATTGC | 0.116 ± 0.014
AGCGTAGC | -0.145 ± 0.015
AATAGCGG | -0.103 ± 0.092
GAGTATTA | -0.0219 ± 0.018
CCTTCGTC | 0.0646 ± 0.02
CTCCGCCC | 0.0177 ± 0.052
GCAGAGTA | -0.0293 ± 0.012
ACCGACCC | -0.0605 ± 0.077
ACCGCAGT | -0.139 ± 0.06
GAGCCCGA | -0.26993 ± 0.00026
AAAAGGAC | -0.0497 ± 0.078
AACCACTG | -0.317 ± 0.011
AAATGCCG | -0.00567 ± 0.027
CCGAACCA | -0.0377 ± 0.058
